Measured values published in paper PMC4336329 (PLoS ONE, 2015).
Screen size: about 310,000 compounds; about 2,200 (0.71%) showed an effect of 50% or more. Effects have a minus sign here. Some of the results follow.

biological target: human ether-à-go-go-related gene (hERG) potassium channel (human, UniProt Q12809); assay: primary screen, population patch clamp on CHO cells stably expressing hERG
Sequence (Q12809 whole entry, looked up): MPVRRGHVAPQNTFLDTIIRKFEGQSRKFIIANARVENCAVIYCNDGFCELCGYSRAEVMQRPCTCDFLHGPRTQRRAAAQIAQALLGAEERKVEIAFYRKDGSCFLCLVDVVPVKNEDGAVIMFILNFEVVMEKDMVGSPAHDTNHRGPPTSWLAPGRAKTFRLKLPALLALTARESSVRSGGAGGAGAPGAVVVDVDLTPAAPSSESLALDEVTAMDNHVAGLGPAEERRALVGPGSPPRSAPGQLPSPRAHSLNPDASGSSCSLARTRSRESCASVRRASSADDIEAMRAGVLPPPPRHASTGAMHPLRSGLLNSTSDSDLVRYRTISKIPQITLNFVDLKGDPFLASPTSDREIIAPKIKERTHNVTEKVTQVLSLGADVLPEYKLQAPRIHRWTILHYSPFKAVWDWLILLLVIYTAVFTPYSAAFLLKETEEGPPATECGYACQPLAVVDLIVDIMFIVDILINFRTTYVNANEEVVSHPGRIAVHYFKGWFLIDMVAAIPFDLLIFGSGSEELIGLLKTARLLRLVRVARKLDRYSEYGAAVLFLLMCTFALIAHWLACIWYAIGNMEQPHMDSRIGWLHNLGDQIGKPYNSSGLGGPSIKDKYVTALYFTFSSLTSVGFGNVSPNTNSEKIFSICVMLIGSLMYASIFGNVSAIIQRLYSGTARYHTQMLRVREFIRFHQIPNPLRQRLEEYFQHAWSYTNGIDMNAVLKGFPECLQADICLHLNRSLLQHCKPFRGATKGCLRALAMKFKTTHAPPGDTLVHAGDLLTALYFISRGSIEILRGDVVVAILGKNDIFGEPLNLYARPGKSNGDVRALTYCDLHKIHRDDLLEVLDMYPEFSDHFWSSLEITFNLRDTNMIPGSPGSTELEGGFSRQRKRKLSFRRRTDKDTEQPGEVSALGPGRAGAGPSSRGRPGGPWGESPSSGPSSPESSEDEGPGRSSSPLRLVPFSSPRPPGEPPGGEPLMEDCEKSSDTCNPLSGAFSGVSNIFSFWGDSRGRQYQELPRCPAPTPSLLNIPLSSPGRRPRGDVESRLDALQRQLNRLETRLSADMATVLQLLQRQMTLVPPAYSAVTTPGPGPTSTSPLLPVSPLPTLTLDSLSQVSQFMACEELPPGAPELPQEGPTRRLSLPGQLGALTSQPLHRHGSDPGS

SMILES | hERG current change (%, negative = inhibition) at 1uM [%]
CNC(=O)N(O)C1N(/N=C/c2ccccc2O)C(=S)SC1(C)C (centres unmarked) | 5.59
O=S(=O)(Nc1cccc(C(F)(F)F)c1)c1cccnc1 | 7.26
O=[N+]([O-])c1cccc(-c2ccc(SCc3ccccn3)nn2)c1 | 5.92
CN1c2ccsc2C(O)=C(C(=S)Nc2ccccc2)S1(=O)=O | 8.83
CCCCN(C(=O)CCC(=O)Nc1cc(C)on1)C(C(=O)NC1CCCC1)c1ccc(F)cc1 (centres unmarked) | 7.75
Nc1c(-c2cccc([N+](=O)[O-])c2)nc2ccccn12 | 4.59
O=c1[nH]c(CN2CCN(c3ccccc3O)CC2)nc2ccccc12 | 7.1
CN1CCN(C(N)=NC(=O)c2ccccc2)CC1 | 6.48
CCOc1cccc(C(=O)N/N=C/c2ccoc2)c1 | 13.3
Cc1ccc(C)c(C(=O)CN2C(=O)NC3(CCc4ccccc43)C2=O)c1 (centres unmarked) | 3.21
COc1ccccc1NC(=O)c1cccc(S(=O)(=O)N2CCOCC2)c1 | 8.31
Cc1ccc(C)c(N2CCN(CCCc3ccccc3)CC2)c1 | 1.81
C/C(=N\NC(=O)C(C)Sc1ccccc1)c1ccc([N+](=O)[O-])cc1 (centres unmarked) | 8.3
O=S(=O)(Nc1ccc(N2CCCCC2)cc1)c1cccc2cccnc12 | -0.541
Cc1cc(NC(=O)COC(=O)COc2ccc(C(=O)c3ccccc3)cc2)no1 | 6.99
C/C(CC(=O)Nc1cccnc1)=N\NC(=O)C(C)Oc1ccc(Cl)cc1Cl (centres unmarked) | 15.6
OC(CN1CCN(Cc2ccccc2)CC1)Cn1c2ccccc2c2ccccc21 (centres unmarked) | 11.7
Cc1ccc(Sc2ccc(/C=C3/C(=O)NN(c4ccccc4)C3=O)o2)cc1 | 10.5
C=CCOc1ccc(/C=N\NC(N)=S)cc1 | 12
COc1cc(CNC2CCCCCCC2)cc(Cl)c1OCC(N)=O.Cl | 9.62
CCNc1c(NC(=O)C2CCC(C)CC2)c(=O)oc2ccccc12 (centres unmarked) | 11.3
CN(C)CCCNC(=O)/C(=C\c1ccc(-c2cccc([N+](=O)[O-])c2)o1)NC(=O)c1ccccc1 | -77.9

SMILES | hERG current change (%, negative = inhibition) at 1uM [%]
CCOC(=O)C1CCN(C(=O)c2ccc(CNS(=O)(=O)c3ccc(OC)cc3)cc2)CC1 | 2.8
Cc1cc(C(=O)CSc2nnc(-c3ccc4c(c3)OCO4)o2)c(C)n1-c1ccc(F)cc1 | 5.94
CCOc1ccc(NC(=O)CS(=O)CC(=O)Nc2cccnc2)cc1 (centres unmarked) | 17.7
COc1ccccc1N(CC(=O)N1CCOCC1)S(C)(=O)=O | 15.9
CCOc1ccc(NC(=O)CC2NCCNC2=O)cc1 (centres unmarked) | 4.11
CN1CCN(C(=O)NCC23CC4CC(CC(C4)C2)C3)CC1 | 11.9
CC(=O)Nc1ccc(NC(=O)CSc2ccc(C(F)(F)F)cc2[N+](=O)[O-])cc1 | 7.37
O=C(Nc1ccccc1N1CCCC1)C1CCN(S(=O)(=O)c2cccc(C(F)(F)F)c2)CC1 | 10.3
Cc1cccc(/C(N)=N/OC(=O)c2ccc(Cl)cc2Cl)c1 | 8.57
C/C(=N\Nc1ccccn1)c1ccc(Br)s1 | 0.307
Cc1ccc(/C=C2\Sc3ccccc3C2=O)s1 | 8.98
Cc1nn2c(C)c(C(=O)Nc3ccccc3)cnc2c1-c1ccccc1 | 7.99
Cc1ccc(OCC(=O)NCCCNC(=O)c2ccco2)cc1 | 11.6
O=C(N/N=C/c1ccccc1F)c1ccccc1OCc1ccccc1 | 10.8
CS(=O)(=O)N(CC(=O)N1CCN(c2ccccc2F)CC1)c1cccc(C(F)(F)F)c1 | -0.389
COc1cccc(C2C(C#N)=C(N)Oc3c2oc(CO)cc3=O)c1OC (centres unmarked) | 2.89
Nc1ccc(NC(=O)NC2CCCCC2)cc1[N+](=O)[O-] | 16.7
Cc1cc2c3c([nH]c2cc1S(=O)(=O)NCCCOC(C)C)CC(C)(C)CC3=O | 6.94
C#CCOCCOCCOCCNc1nc(N2CCN(C(=O)C(Cc3cc4ccccc4[nH]3)n3cc(C(N)C(C)CC)nn3)CC2)nc(N2CCN(C(=O)C(Cc3cc4ccccc4[nH]3)n3cc(C(N)C(C)CC)nn3)CC2)n1.Cl (centres unmarked) | 6.36
Cc1ccc(CN(C)C(=O)c2ccc3c(c2)NC(=O)CS3)o1 | -7.62
O=C1C2C3C=CC(CC3)C2C(=O)N1/N=C/c1c(O)ccc2ccccc12 (centres unmarked) | 6.58
CCSCCOC(=O)C1=C(C)NC(=O)NC1c1cccc(OC)c1OC (centres unmarked) | 10.7

SMILES | hERG current change (%, negative = inhibition) at 1uM [%]
COc1cccc(/C=C/c2nc(S(=O)(=O)c3ccccc3)c(N(C)C)o2)c1 | 12.5
N#CC(C#N)=C1NC(N)=C(C#N)C(c2ccccc2)=C1C#N | -2.99
O=C(NCCCCCc1nc2ccccc2[nH]1)c1ccccc1Cl | 13.8
COc1ccc(-c2[nH]c(-c3ccc(SC)cc3)nc2SCC(=O)Nc2nccs2)cc1 | 9.04
Cc1nc(NC(=O)COC(=O)c2ccc(S(=O)(=O)N3CCc4ccccc4C3)cc2)c(Cl)cc1Cl | 6.95
CCOc1ncccc1C(=O)OCc1c(Cl)cccc1Cl | 10.9
O=C(COC(=O)c1ccc(O)cc1)NCC1COc2ccccc2O1 (centres unmarked) | -2.74
Cc1cccc(C(=O)NC(=S)NC(C)c2ccccc2)c1 (centres unmarked) | 11.9
CCCn1c(=O)c2sccc2n2c(CCCC(=O)NC3CCN(Cc4ccccc4)CC3)nnc12 | 0.0751
O=C(Nc1cccc(O)c1)c1cc(-c2cccs2)on1 | 7
CC(C)(C)c1ccc(S(=O)(=O)NCc2ccccn2)cc1 | 8.87
O=C(Oc1oc(-c2ccco2)nc1C=Nc1ccccc1)c1ccco1 | 14.4
O=C(CN1CCOCC1)Nc1nc2ccc([N+](=O)[O-])cc2s1 | -9.36
O=C(CN1CCOCC1)Nc1ccccc1Sc1ccccc1 | 3.64
CCC(=O)Oc1ccc(C(=O)Nc2ccc3c(c2)C(=O)N(C2CCCCC2)C3=O)cc1 | 19.8
Cc1ccc(S(=O)(=O)NCc2ccncc2)cc1C(=O)NCC(C)C | 10.7
CCCOc1ccc(C(O)(CCC)CCN2CCCCC2)cc1 (centres unmarked) | -25.4
Cc1cc(N(C)/N=C/c2ccccc2)nc(-c2ccccc2O)n1 | -1.01
Cc1nc(SCCc2ccccc2)[nH]c(=O)c1C | 13.9
O=C(CCc1nc2ccccc2s1)OCc1ccccc1F | 10.5
Cn1c(=O)n(C)c2cc(/C=N/NC(=O)c3ccc(Cl)cc3)ccc21 | 18.4
O=c1cc2c(n[nH]1)-c1ccccc1CC2 | 10.1

SMILES | hERG current change (%, negative = inhibition) at 1uM [%]
CCOC(=O)N1CCN(C(=O)c2cc3c(=O)n4cccc(C)c4nc3s2)CC1 | 1.13
CCO[C@H]1OC(C(=O)N2CCN(Cc3ccccc3)CC2)=C[C@@H](C2CCCCC2)[C@@H]1CCCO | 14.6
CC1CCCN(C(=O)Cn2nnc(-c3cccnc3)n2)C1 (centres unmarked) | 0.118
CCCN(Cc1nnc(-c2cccs2)o1)C(=O)CN1C(=O)NC2(CCC(C)CC2)C1=O (centres unmarked) | -20.9
CCOCCCNC(=O)C(NC(=O)c1ccc(NC(C)=O)cc1)c1ccccc1 (centres unmarked) | 4.68
CC(=O)c1cccc(S(=O)(=O)NCCC(=O)O)c1 | 28
COc1ccc(NS(=O)(=O)c2ccc3oc(SCC(N)=O)nc3c2)cc1 | 12.8
CCOC(=O)C1(C)Oc2cccnc2NC1=O (centres unmarked) | 18.9
CCOC(=O)N1CCN(c2cc(C)c(C(C)=O)cc2F)CC1 | 13.1
COc1ccc([C@H]2CC(=O)C=C(c3cccc(CO)c3)C2)cc1 | -4.79
Nc1c(Cl)cc(C(=O)c2c3ccc(C(F)(F)F)cc3[n+]([O-])n2CCC[NH3+])cc1Cl.[Cl-] | -37.3
CCC(=O)N1CCN=C1SCc1ccc(Cl)cc1 | -4.17
COc1cccc(CCNC(=O)CC2C(=O)NCCN2Cc2ccc(C)o2)c1 (centres unmarked) | 15.7
NC(=O)CNC(=O)[C@@H]1CC2(CC(c3ccccc3)=NO2)CN1C(=O)c1ccc(Br)cc1 (some centres unmarked) | 7.97
CN(CCC#N)C(=O)COC(=O)C1c2ccccc2Oc2ccccc21 | 3.21
COc1ccc(-n2ncc3c2CC(C)(C)CC3NC(=O)CCn2cncn2)cc1 (centres unmarked) | -5.06
CCN1CC(CNC(=O)c2ccc3nc(Cc4cccc(Cl)c4)oc3c2)CC1=O (centres unmarked) | 8.38
O=C(NCC(=O)N(c1ccccc1F)C(C(=O)NCC1CCCO1)c1ccccc1)c1ccco1 (centres unmarked) | 5.88
CCOc1ccc(S(=O)(=O)N2CCCC(C(=O)N3CCN(c4ccccc4)CC3)C2)cc1 (centres unmarked) | -22.3
CC1CCC2C(=O)N(c3ccc(NC4CCN(Cc5ccccc5)CC4)c([N+](=O)[O-])c3)C(=O)C2C1 (centres unmarked) | 8.68
